Results reported in article PMC4336329 (PLoS ONE, 2015).
The whole screen tested about 310,000 compounds, of which about 14,000 (4.5%) showed an effect of 50% or more. The effect is printed as a negative number. The list shows a part of the results.

Target: human ether-à-go-go-related gene (hERG) potassium channel (human, UniProt Q12809)
Test: primary screen, population patch clamp on CHO cells stably expressing hERG
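Note: peak tail current of the secondary pulse compared with the same well before compound.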

human ether-à-go-go-related gene (hERG) potassium channel, sequence (Q12809 whole entry, looked up): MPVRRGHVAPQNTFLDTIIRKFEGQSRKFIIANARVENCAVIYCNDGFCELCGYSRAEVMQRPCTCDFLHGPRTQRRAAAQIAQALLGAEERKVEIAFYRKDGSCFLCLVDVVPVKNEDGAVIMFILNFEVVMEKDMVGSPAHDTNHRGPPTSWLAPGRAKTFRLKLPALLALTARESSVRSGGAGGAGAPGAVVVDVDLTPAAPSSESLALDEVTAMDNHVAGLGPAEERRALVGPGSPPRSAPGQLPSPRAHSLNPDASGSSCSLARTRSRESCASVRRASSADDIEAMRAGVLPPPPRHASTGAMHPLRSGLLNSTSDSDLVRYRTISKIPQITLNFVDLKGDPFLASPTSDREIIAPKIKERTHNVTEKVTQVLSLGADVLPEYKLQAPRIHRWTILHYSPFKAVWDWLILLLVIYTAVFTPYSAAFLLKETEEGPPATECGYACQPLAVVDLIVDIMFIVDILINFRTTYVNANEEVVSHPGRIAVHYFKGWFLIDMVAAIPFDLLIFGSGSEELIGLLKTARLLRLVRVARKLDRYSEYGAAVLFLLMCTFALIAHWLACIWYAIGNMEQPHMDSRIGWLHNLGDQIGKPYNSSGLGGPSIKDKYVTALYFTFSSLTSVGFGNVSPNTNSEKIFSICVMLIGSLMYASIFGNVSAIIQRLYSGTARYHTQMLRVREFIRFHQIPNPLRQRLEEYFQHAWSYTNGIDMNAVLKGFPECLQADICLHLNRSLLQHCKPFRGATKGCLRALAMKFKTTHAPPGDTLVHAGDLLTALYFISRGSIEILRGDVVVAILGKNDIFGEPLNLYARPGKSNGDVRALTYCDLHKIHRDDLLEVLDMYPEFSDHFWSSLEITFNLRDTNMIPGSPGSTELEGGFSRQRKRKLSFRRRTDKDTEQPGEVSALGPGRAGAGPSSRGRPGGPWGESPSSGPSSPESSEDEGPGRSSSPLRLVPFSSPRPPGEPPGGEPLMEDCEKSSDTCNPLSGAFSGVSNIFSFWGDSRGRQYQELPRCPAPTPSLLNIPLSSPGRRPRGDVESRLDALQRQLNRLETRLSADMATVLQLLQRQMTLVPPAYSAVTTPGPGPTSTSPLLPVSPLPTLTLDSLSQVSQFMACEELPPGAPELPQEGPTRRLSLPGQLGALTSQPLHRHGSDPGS

| SMILES | hERG current change (%, negative = inhibition) at 10uM [%] |
| --- | --- |
| N#Cc1ccc(C(=O)Nc2ccc3ccccc3c2)cc1 | 24.4 |
| CCn1cc(/C=N\NC(=O)c2ccc3c(c2)c(C)c(C)n3Cc2ccccc2)c(C)n1 | -13.1 |
| COc1ccc(-c2nc3nc(N)nn3cc2C)cc1F | 9.62 |
| OCCC#Cc1ccc(CN2CCN(Cc3ccccc3)C(CCO)C2)cc1 (stereo not shown) | -15 |
| C/C(N)=C(/C#N)C(=O)COC(=O)c1ccc(O)cc1 | 5.92 |
| CCOC(=O)c1c(CSc2ccc(C)cc2)n(C)c2cc(Br)c(O)c(CN(C)C)c12.Cl.O | -54.9 |
| O=C(C1=C[C@H](c2coc3ccccc3c2=O)C[C@H](OCc2ccc(CO)cc2)O1)N1CCOCC1 | -49.7 |
| C[C@@H]1O[C@@H](O[C@H]2[C@H](Oc3cc(O)c4c(c3)OC(c3ccc(O)cc3)CC4=O)O[C@H](CO)[C@@H](O)[C@@H]2O)[C@H](O)[C@H](O)[C@H]1O (stereo partly shown) | 9.52 |
| Cc1ccc(N(CC(=O)N2CCc3ccccc32)S(=O)(=O)c2cccs2)cc1 | 3.66 |
| Cc1c(C(=O)N/N=C/c2ccc(N3CCOCC3)cc2)nc2ccccn12 | -1.87 |
| COc1cccc(C(=O)Nc2c(F)cccc2F)c1 | 13.7 |
| CCOC(=O)CNc1ncc([N+](=O)[O-])cc1C#N | 9.14 |
| CC(=O)c1ccc(OCCOc2ccc(C#N)cc2)cc1 | -49.4 |
| Cn1nc(-c2ccccc2)c2nc3ccccc3nc21 | -5.31 |
| Cc1nc(NCCCn2ccnc2)c2ccccc2n1.Cl | 3.46 |
| N#CC(C(N)=O)=C1CCCCC1 | 3 |
| CS(=O)(=O)c1cccc(C(=O)Nc2ccccc2Cc2ccccc2)c1 | -1.45 |
| COCCn1nnnc1C(c1cc2cc(C)ccc2[nH]c1=O)N1CCc2ccccc21 (stereo not shown) | 11.7 |
| c1ccc(Cn2nnc3c(N4CCC5(CC4)OCCO5)ncnc32)cc1 | -22.2 |
| CCC(CC)C(=O)Nc1cc(C)c2c(=O)oc3ccccc3c2n1 | 1.39 |
| Cc1nnc(N2CCN(Cc3ccccc3)CC2)[nH]c1=O | 5.07 |
| CC(=O)C1=C(C)OC2(O)c3ccccc3C(=O)C12O (stereo not shown) | 10 |

| SMILES | hERG current change (%, negative = inhibition) at 10uM [%] |
| --- | --- |
| Cc1ccc(-n2cc(CNC(C)Cn3cncn3)c(-c3ccc(F)cc3)n2)cc1 (stereo not shown) | -60.7 |
| O=C(CCc1ccccc1)Nc1cccc(-c2nnc(-c3ccco3)o2)c1 | 2.2 |
| Cc1cc(Cl)ccc1NC(=O)COC(=O)CCNS(=O)(=O)c1ccccc1 | -27.6 |
| O=C(CNS(=O)(=O)c1ccc(Br)s1)N1CCC2(CC1)OCCO2 | -7.69 |
| Cc1ccccc1OCCNc1cc(N2CC(C)NC(C)C2)ccc1[N+](=O)[O-] (stereo not shown) | -12.3 |
| COCCSc1ccccc1C(=O)Nc1nncs1 | -5.1 |
| CCc1ccc(NC(=O)Cn2cnc3c(=O)n(C)c(=O)n(C)c32)cc1 | 13.2 |
| COc1ccc(S(=O)(=O)N2CCOCC2)cc1NC(=O)COC(=O)C1COc2ccccc2O1 (stereo not shown) | -11.7 |
| CC(=O)NS(=O)(=O)c1ccc(NC(=O)c2ccc(Cl)cc2[N+](=O)[O-])cc1 | 19 |
| Cc1noc(C(=O)Nc2ccc(F)cc2F)c1Cl | 11.3 |
| Cc1cccc(C)c1OCCN1CCOCC1.O=C(O)C(=O)O | -0.56 |
| CCOc1nc2ccccc2nc1NS(=O)(=O)c1ccccc1 | -1.6 |
| CN(C)CCCn1c(=O)n(CCc2ccccc2)c(=O)c2c3c(sc21)CCCCC3 | -70.4 |
| CCOc1ccccc1NC(=O)NC1CCCc2ccccc21 (stereo not shown) | 10.6 |
| C#CCSc1nc(-c2cccs2)ccc1C#N | -13.4 |
| Cc1ccc([N+](=O)[O-])cc1NC(=O)/C=C/C(=O)O | -2.79 |
| COC(=O)c1cc(-c2ccc(OC)c(OC)c2)c2c(=O)[nH]c(=O)n(C)c2n1 | 21.3 |
| CCc1ccccc1N(CC(=O)NCc1ccc(OC)cc1)C(=O)CCC(=O)Nc1ccccn1 | 4.26 |
| CC1CCCC(NC(=S)NC(=O)c2cncc(Br)c2)C1C (stereo not shown) | 21.7 |
| COc1ccccc1-c1nc(C#N)c(N2CC(C)CC(C)C2)o1 (stereo not shown) | 5.24 |
| CN(C)CC#CCn1c2ccccc2c2ccccc21.Cl | -2.15 |
| CCCCN(C(=O)c1cc(S(=O)(=O)N2CCCCCC2)ccc1OC)c1c(N)n(CCC)c(=O)[nH]c1=O | 3.86 |

| SMILES | hERG current change (%, negative = inhibition) at 10uM [%] |
| --- | --- |
| O=C(Cn1ccc(C(F)(F)F)n1)Nc1ccc(S(=O)(=O)NCc2ccco2)cc1 | 1.34 |
| Cn1c(=O)c2c(nc(CN3CCN(c4ccccc4)CC3)n2Cc2c(F)cccc2Cl)n(C)c1=O | -22.1 |
| COC(=O)C1=C(C(=O)OC)C(c2ccccc2O)c2sc(=O)[nH]c2S1 (stereo not shown) | -55.9 |
| O=C(c1cc(-c2ccccc2)nc2ccccc12)N1CCc2ccccc2C1 | -16.1 |
| COc1cc(/C=C2\NC(=S)N(C)C2=O)ccc1OCc1cccc(F)c1 | 10.5 |
| CCCn1nnc(NC(=S)NC(=O)/C=C/c2ccc(Cl)cc2)n1 | 19.5 |
| O=C(COC(=O)c1cc([N+](=O)[O-])ccc1NCc1ccccc1)NC1CCCCC1 | -6 |
| O=C1CN(C(=O)COC(=O)/C=C/c2ccc(OC(F)F)cc2)c2ccccc2N1 | -16.2 |
| Cn1cc(CN2CCC(n3nccc3NC(=O)CCc3ccccc3)CC2)cn1 | 16 |
| O=C(NCCCN1CCOCC1)c1ccc2nc(Cc3ccccc3F)oc2c1 | -6.93 |
| O=C(O)CCCN(Cc1cccc(Br)c1)S(=O)(=O)c1ccc(Br)cc1 | -23.4 |
| Cc1nnc(SCc2cc(=O)oc3ccc4ccccc4c23)n1Cc1ccccc1 | -23.8 |
| COc1cccc(CNCCSc2nnnn2C)c1OC.Cl | -2.18 |
| CCS(=O)(=O)N1CCN(C(=O)c2ccc(-c3ccccc3)cc2)CC1 | -12.8 |
| COC(=O)c1ccc(COc2ccc(C(C)(C)C)cc2)o1 | 21.1 |
| CCc1ccc(-n2c(SCC(=O)N3CCC(C(=O)O)CC3)nnc2-c2ccncc2)cc1 | -0.767 |
| COc1ccc(CCNC(=O)CSc2nnnn2-c2ccc(OC)c(OC)c2)cc1OC | 2.17 |
| CCC1(c2ccc(F)cc2)NC(=O)N(CC(=O)Nc2ccc(C(N)=O)cc2)C1=O (stereo not shown) | 23.5 |
| CCOc1ccc(C(=O)NCCn2cc(SCC(=O)Nc3cc(C)on3)c3ccccc32)cc1 | 3.4 |
| CCOC(=O)/C(=C\C=C1/Sc2cc(OCC)c(OCC)cc2N1CC)C(C)=O | -11.8 |
| CCCCC(CC)C(=O)Nc1ccc(Nc2ccccc2)cc1 (stereo not shown) | -12.8 |
| O=C(CCCc1ccccc1)NCc1ccc(Cl)cc1 | -15.3 |

| SMILES | hERG current change (%, negative = inhibition) at 10uM [%] |
| --- | --- |
| CC(C)N(Cc1nc(-c2ccc(Cl)cc2)no1)C(=O)/C=C/c1ccccc1 | 3.41 |
| O=C(CSc1nc2ccccc2c(=O)n1Cc1ccco1)N1CCCC1 | -77.1 |
| COc1ccc(S(=O)(=O)N2CCN(CC(=O)Nc3sccc3C(N)=O)CC2)cc1OC | -28 |
| O=C(NN=C1CCCC1)c1ccn[nH]1 | 2.96 |
| O=P(COCCOCCOCP(=O)(c1ccccc1)c1ccccc1)(c1ccccc1)c1ccccc1 | -31.6 |
| CC1(C)Cc2nc3sc4c(N5CCCC5)nnnc4c3cc2CO1 | 1.3 |
| COc1ccc(CNC(=S)Nc2ccc(-c3ccccc3)cc2)cc1 | 9.6 |
| COc1cc(/C=C/[N+](=O)[O-])ccc1OC(=O)c1cccnc1 | 12.8 |
| Cc1ccc(NC(=O)Cn2c([N+](=O)[O-])cnc2C)cc1 | 19.1 |
| O=C(C1CC(=O)N(c2ccc3c(c2)OCCO3)C1)N1CCN(c2cccc(C(F)(F)F)c2)CC1 (stereo not shown) | -34.6 |
| CCOc1ccc(CC(=O)NCC(=O)NCc2cc(=O)n(C)c(=O)n2C)cc1 | -14 |
| N#CC1=C(N)Nc2ncnn2C1c1ccc(F)cc1 (stereo not shown) | -16.3 |
| CCN1CCN(Cc2ccc(NC(=O)c3cc(NC(=O)C(=O)c4c[nH]c5ccccc45)cc(OC)c3)cc2C(F)(F)F)CC1 | 8.1 |
| O=C(O)CNC(=O)/C(=C\c1ccco1)NC(=O)c1ccco1 | 18.6 |
| CCCCn1c(N)c(N(CCOC)C(=O)C2CCN(S(=O)(=O)c3ccc(C)c(C)c3)CC2)c(=O)[nH]c1=O | -14.4 |
| COc1ccc(S(=O)(=O)N2CCCCC2)cc1NC(=O)CN(Cc1ccco1)Cc1ccco1 | -23.7 |
| Cc1ccc(NC(=O)COC(=O)C2CCC2)cc1S(=O)(=O)N1CCCCC1 | -9.25 |
| CC(=O)NCCc1c[nH]c2ccc(O)cc12 | 33.8 |
| COc1ccc(CN2CCC(N3CC(C)OC(C)C3)CC2)c(OC)c1OC.O=C(O)C(=O)O (stereo not shown) | -1.67 |
